# In article PMC4336329 (PLoS ONE, 2015):
# About 14,000 (4.5%) of roughly 310,000 compounds showed an effect of 50% or more. The effect is printed as a negative number. This is one part of the list.
# Target: human ether-à-go-go-related gene (hERG) potassium channel (human, UniProt Q12809)
# Assay: primary screen, population patch clamp on CHO cells stably expressing hERG
# 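Note: peak tail current of the secondary pulse compared with the same well before compound.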
# human ether-à-go-go-related gene (hERG) potassium channel, sequence (Q12809 whole entry, looked up): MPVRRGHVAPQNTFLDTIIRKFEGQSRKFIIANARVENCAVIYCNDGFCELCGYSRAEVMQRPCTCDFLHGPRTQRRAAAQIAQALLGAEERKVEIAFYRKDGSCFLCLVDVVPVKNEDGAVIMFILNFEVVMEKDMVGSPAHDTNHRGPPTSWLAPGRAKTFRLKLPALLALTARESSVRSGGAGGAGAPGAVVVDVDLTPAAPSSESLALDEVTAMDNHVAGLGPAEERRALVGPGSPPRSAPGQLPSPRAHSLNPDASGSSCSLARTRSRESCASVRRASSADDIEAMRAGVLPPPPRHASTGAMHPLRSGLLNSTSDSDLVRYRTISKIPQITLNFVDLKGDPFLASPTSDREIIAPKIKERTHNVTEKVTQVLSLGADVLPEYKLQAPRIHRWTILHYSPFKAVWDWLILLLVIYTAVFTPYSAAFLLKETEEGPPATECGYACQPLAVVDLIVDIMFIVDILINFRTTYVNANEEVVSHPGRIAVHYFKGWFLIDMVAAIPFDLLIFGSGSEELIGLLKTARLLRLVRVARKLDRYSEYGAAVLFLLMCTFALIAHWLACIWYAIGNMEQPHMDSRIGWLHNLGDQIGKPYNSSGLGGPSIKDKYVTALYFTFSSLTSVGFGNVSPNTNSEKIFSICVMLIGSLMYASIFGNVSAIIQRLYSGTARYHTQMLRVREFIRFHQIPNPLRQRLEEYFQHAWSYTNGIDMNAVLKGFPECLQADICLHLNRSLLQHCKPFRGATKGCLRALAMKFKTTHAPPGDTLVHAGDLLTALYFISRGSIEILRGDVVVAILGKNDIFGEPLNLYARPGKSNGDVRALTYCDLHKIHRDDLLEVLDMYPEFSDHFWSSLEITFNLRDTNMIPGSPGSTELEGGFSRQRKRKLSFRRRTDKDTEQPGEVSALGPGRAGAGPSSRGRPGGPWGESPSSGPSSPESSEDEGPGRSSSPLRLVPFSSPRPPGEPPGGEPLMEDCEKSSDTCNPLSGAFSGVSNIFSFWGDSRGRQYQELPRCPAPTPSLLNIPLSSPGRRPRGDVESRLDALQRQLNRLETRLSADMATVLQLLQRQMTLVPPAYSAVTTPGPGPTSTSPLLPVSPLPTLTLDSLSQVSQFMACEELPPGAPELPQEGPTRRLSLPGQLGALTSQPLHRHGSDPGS
row,Compound,"hERG current change (%, negative = inhibition) at 10uM [%]"
1,CC(C)c1ccc(N2C(=O)CC(NNC(=O)c3cccnc3)C2=O)cc1 (stereo not drawn),17
2,Cn1c(=O)c2c(nc(CN3CCN(c4ccc(F)cc4)CC3)n2Cc2ccccc2F)n(C)c1=O,-6.93
3,O=C(Nc1ccccc1F)OC1CN2CCC1CC2 (stereo not drawn),6.21
4,COc1ccc2c(c1)CCc1cn[nH]c1-2,18.7
5,O=C(NCc1ccco1)C1CCN(c2nc3ccccc3n2Cc2ccccc2F)CC1,-66.2
6,O=C(c1cc(-c2cccc(Cl)c2)on1)N1CCCC1,-5.13
7,Cc1cccc(C(=O)NCC(=O)OCC(=O)N2CC3(C)CC2CC(C)(C)C3)c1 (stereo not drawn),-26
8,C=CCn1c(COc2ccccc2)nnc1SCC(=O)C(C)(C)C,-13.6
9,CN(C)S(=O)(=O)N1CCCC(C(=O)c2ccc(C(F)(F)F)cc2)C1 (stereo not drawn),16
10,Cl.O=C(NCCOC(=O)c1ccccc1C(=O)OCCNC(=O)c1cccnc1)c1cccnc1,6.71
11,Cc1nn(C2CCCO2)c(=O)nc1N (stereo not drawn),19.1
12,COc1ccc(CCNC(=O)CSc2nc3ccccc3o2)cc1OC,13.9
13,CN1CCC(N(C)C(=O)c2ccccc2F)CC1.Cl,33.5
14,O=C(O)c1cc(NC(=O)c2ccccc2F)cc(NC(=O)c2ccccc2F)c1,3.94
15,FC(F)(F)c1cccc(-n2cccc2/C=N/n2cnnc2)c1,-30
16,CN1CCN(C(=O)Nc2ccc([N+](=O)[O-])cc2)CC1,-23.8
17,O=C(Nc1ccccc1C(=O)Nc1ccc(Br)cn1)c1cccc([N+](=O)[O-])c1,16.6
18,CC(=O)Nc1ccc(S(=O)(=O)Nc2c(NC3CCCCC3)c3ccccc3oc2=O)cc1,7.19
19,COc1cc(CN2CCN(c3ccccc3F)CC2)cc(OC)c1O,-26.4
20,CCc1ccc(S(=O)(=O)NCCc2cn3ccc(C)cc3n2)s1,-54.2
21,O=C(CN1CCN(Cc2ccc(Cl)cc2)CC1)N/N=C/c1c[nH]c2ccccc12,-52.9
22,C/C=C(\C)C(=O)NCCN1C2=NC[C@H](C(C)C)N2C[C@@H]1Cc1ccc(OC)cc1,-86.6
23,CC1(C)N2CC3([N+](=O)[O-])CN1CC([N+](=O)[O-])(C2)C3,11.1

row,Compound,"hERG current change (%, negative = inhibition) at 10uM [%]"
1,S=C(Nc1ccccc1Cl)N1CCOCC1,17.1
2,N#Cc1c(NC(=O)CSc2nc(-c3ccccc3)cc(C(F)(F)F)n2)sc2c1CCC2,16.7
3,Cc1c(C(=O)Nc2c(F)cccc2F)sc2ncn(CC(=O)N3CCCCC3)c(=O)c12,3.98
4,COc1ccc(NC(=S)Nc2ccccc2Cl)cn1,-3.12
5,CCn1c(SCCC#N)nnc1-c1ccncc1,1.69
6,O=C(NC1CC1)c1ccc2c3c(cccc13)CC2,-2.52
7,COc1cc(C2Nc3ccccc3C(=O)N2c2ccc3c(c2)OCCO3)ccc1OCC(C)C (stereo not drawn),6.52
8,Cc1ccc2c(c1)/C(=C/c1ccccc1F)C(=O)N2,17.7
9,CCOc1ccc(CN(C)CC(O)COC(c2ccc(OC)cc2)c2ccc(OC)cc2)cc1 (stereo not drawn),-77.4
10,CCCSc1nsc(SCCC)c1C(N)=O,-5.26
11,CCC(C)Sc1nnc(CSc2nc(C)cc(C)n2)n1C (stereo not drawn),0.765
12,COc1ccc(OC)c(-n2nnnc2SCC(=O)Nc2ccc(C(=O)N3CCCCC3)cc2)c1,-11.2
13,O=C(CSc1nc2ccccc2c(=O)n1NC(=O)Cc1ccccc1)NCc1ccco1,-2.86
14,CC(=O)c1cccc(NC(=S)NCCCCc2ccccc2)c1,-2.16
15,Cc1cc(C(=O)N2CCCC(N3CCN(c4ccccc4C)CC3)C2)nc(C)n1 (stereo not drawn),4.27
16,O=C(NCc1ccco1)c1cc2n(n1)C(C(F)(F)F)CC(c1ccc(Cl)c(Cl)c1)N2 (stereo not drawn),-17.2
17,CN1/C(=C\C(=O)COC(=O)CN2C(=O)C3CC=CCC3C2=O)C(C)(C)c2ccccc21 (stereo not drawn),-19.7
18,CCC(C)N(C(=O)COc1ccc(Cl)c2cccnc12)C1CCS(=O)(=O)C1 (stereo not drawn),-4.6
19,COc1ccccc1NC(=S)NCCc1ccc(S(N)(=O)=O)cc1,9.55
20,CCc1ccc(CCC(=O)Nc2ccc(C)cc2C)o1,-1.9
21,COc1ccccc1C(=O)NCc1ccco1,9.61
22,C=CCc1cc(C)ccc1OCCCn1ccnc1.O=C(O)C(=O)O,-6.54
23,CCCN(CC(=O)Nc1ccccc1C)C(=O)c1cccc(S(=O)(=O)N2CCN(c3ccccc3)CC2)c1,-22

row,Compound,"hERG current change (%, negative = inhibition) at 10uM [%]"
1,CCCc1nnc(SCC(=O)Nc2ccc(OC)cc2)n1N,3.82
2,CC(=O)c1cccc(NC2c3ccccc3C(=O)N2Cc2ccco2)c1 (stereo not drawn),-13.2
3,COC(=O)c1cc(=O)n(Cc2cccs2)c(=Nc2ccccc2)s1,-0.229
4,CSc1ccccc1NC(=O)c1ccccc1N(C)S(C)(=O)=O,-14.1
5,CCC1(C)Cc2c(sc3nnn(CC(=O)Nc4cccc5ccccc45)c(=O)c23)CO1 (stereo not drawn),3.09
6,CCc1ccc2c(CC(=O)Nc3nnc(C4CC4)s3)coc2c1.CN(C)C=O,2.39
7,CCCCn1c(=N)c(S(=O)(=O)c2ccc(Br)cc2)cc2c(=O)n3cccc(C)c3nc21,13
8,Cc1ccccc1C(=O)c1cccn1CC(=O)NCCCc1ccccc1,9.69
9,COc1cscc1C(=O)O,-5.6
10,O=C(CCc1nc2ccccc2s1)N1CCN(c2ccccc2)CC1,-29
11,Cc1ccc(-c2nnc(COC(=O)c3ccco3)o2)cc1,4.77
12,C=CCc1cccc2cc(C(=O)NC3CCCCC3)c(=O)oc12,0.33
13,Cc1ccc(C2=[N+]([O-])C3(CCCCC3=O)N(O)C2(C)C)cc1 (stereo not drawn),5.93
14,COc1ccc(CCN(C)C(=O)C2CCN(Cc3ccccc3)CC2)cc1OC.O=C(O)C(=O)O,3.36
15,O=C(COC(=O)c1ccccc1Oc1ccccc1)NC1CCS(=O)(=O)C1 (stereo not drawn),-0.607
16,CC(OC(=O)c1ccc(Cl)cc1)C(=O)NCc1ccc2c(c1)OCO2 (stereo not drawn),-10.9
17,NC(=O)c1ccc(NC(=O)CN2CCN(c3ccc(Cl)cc3)CC2)cc1,-51.3
18,COc1cccc(-n2c(COc3ccccc3C)nnc2SCC(=O)O)c1,1.56
19,Br.CC[N+](CC)(CC)C/C=C/CN1CCCCC1.[Br-],1.87
20,CCC(CC)NC(=O)COC(=O)c1ccc2c(c1)C(=O)N(Cc1ccco1)C2=O,20
21,Cc1[nH][nH]c(=O)c1C(c1cc2c(cc1Br)OCO2)c1c(C)[nH][nH]c1=O,36.4
22,CN(C)Cc1cccc([N+](=O)[O-])c1O,2.53
23,Cc1ccc(NC(=O)C(=O)NCc2ccc(/C=C(/C#N)C(=O)NCc3cccnc3)o2)cc1C,-9.08

row,Compound,"hERG current change (%, negative = inhibition) at 10uM [%]"
1,COc1ccc(C(CNc2ccc(S(=O)(=O)N3CCCC3)cc2[N+](=O)[O-])N2CCCC2)cc1 (stereo not drawn),-7.1
2,CCCNC(=S)NC1CC2CCCC(C1)N2Cc1ccc(F)cc1 (stereo not drawn),-60.6
3,Cc1ccc(C(=O)OC2CCCN(C)C2)cc1.Cl (stereo not drawn),-2.08
4,Cc1cccc2sc(NC(=O)CSc3nnnn3C)nc12,-24.4
5,O=C(O)c1cnn2c1C(=O)N(Cc1cccs1)CC2,16.5
6,COCCn1nnnc1C(c1cccs1)N1CCCC(C)C1.Cl (stereo not drawn),17.9
7,Cc1ccc(S(=O)(=O)NC2CCCCCCC2)cc1,-0.211
8,CC1(C)CC(=O)CC(=Nc2ccc3[nH]c(=O)[nH]c3c2)C1,-0.138
9,Cc1c(CCOC(=O)c2cc([N+](=O)[O-])cc([N+](=O)[O-])c2)sc[n+]1CCCCS(=O)(=O)[O-],23.4
10,CC1(C)C(=O)Nc2ccccc2N1C(=O)CSc1ncccn1,-45.9
11,CCC(Sc1ccc2nnc(-c3ccc(F)cc3)n2n1)C(=O)OC (stereo not drawn),-48.3
12,C/C(CC(=O)Nc1cc(C)ccn1)=N\NC(=O)c1ccncc1,19.7
13,COc1ccc(CCN2CCCC(CN(C)Cc3cc(Cl)c(O)c(OC)c3)C2)cc1 (stereo not drawn),-65.7
14,COc1ccc(OC)c(NS(=O)(=O)c2cc(OC)ccc2OC)c1,-2.14
15,Cc1cc(C)c(C)c(S(=O)(=O)NCCN2CCOCC2)c1C,-9.48
16,COc1ccc(NC(=O)C/C(C)=N/NC(=O)c2cnccn2)cc1,15.5
17,COc1ccccc1NC(=O)c1ccc(NC(=O)COC(=O)C(C)C)cc1,4.37
18,CCN(CC)C1CCCCC1NS(=O)(=O)c1ccc(Cl)cc1 (stereo not drawn),-1.5
19,C/C(=N\OC(=O)Nc1ccc(Cl)cc1)c1ccc(F)c(F)c1,5.54
20,O=C(NCCCN1CCCCC1)c1ccc(CS(=O)c2ccc(Cl)cc2)o1 (stereo not drawn),-15.2
21,C=CCNc1nc2ccccc2nc1NS(=O)(=O)c1cccc(C)c1,9.73
